Test results reported in PubChem BioAssay AID1508623 (National Center for Advancing Translational Sciences (NCATS), 2021).
The campaign covered roughly 48,000 compounds. About 450 (0.94%) were called active. Roughly 19% stayed inconclusive and do not appear here. The call rests on the fitted dose curve; in most records, active means well fitted inhibition curve with a large enough effect; inconclusive means small, poorly fitted or top-dose-only effect; inactive means no such curve, though single readings can be large or run the other way. Some of the results follow.

test: Primary qHTS for Identification of Small Molecule Inhibitors of Huntingtin Promoter Activity; settings: HEK293 HTT promoter firefly luciferase reporter (activity 0% = vehicle and -100% = no light), 24 h; series mostly up to 57.5 µM; activity change, negative = inhibition: at the top concentration; further: nearly all actives have a fitted effect of over 50% in size
Description: Assay Provider: Russell L. Margolis M.D.
Department Neurology, Johns Hopkins University School of Medicine, Baltimore, MD
Huntington's Disease (HD) is a neurodegenerative disorder caused by a CAG repeat expansion in exon 1 of huntingtin (HTT). While there are currently no disease-modifying treatments for HD, recent efforts have focused on development of nucleotide-based therapeutics to lower HTT expression. As an alternative to siRNA or oligonucleotide methods, we hypothesized that suppression of HTT expression might be accomplished by small molecules that either (1) directly decrease HTT expression by suppressing HTT promoter activity or (2) indirectly decrease HTT expression by increasing the promoter activity of HTT-AS, the gene antisense to HTT that appears to inhibit expression of HTT.
We developed and employed a high throughput screen for modifiers of HTT and HTT-AS promoter activity using luminescent reporter HEK293 cells; of the 52,041 compounds tested, we identified 898 replicable hits. We used a rigorous stepwise approach to assess compound toxicity and the capacity of the compounds to specifically lower huntingtin protein in 5 different cell lines, including HEK293 cells, HD lymphoblastoid cells, mouse primary neurons, HD iPSCs differentiated into cortical-like neurons, and HD hESCs. We found no compounds which were able to lower huntingtin without lowering cell viability in all assays, though the potential efficacy of a few compounds at non-toxic doses could not be excluded.
SEQUENCE No. (1, 2, 3, etc.); […] (e.g., Cells, Incubation, Reagent, etc.); VALUE and DESCRIPTION.
1; Reagent; 4 uL; 2,500 Hek293 luciferase reporter cells per wells
3; Compound; 23 nL; Control inhibitor / compound library
5; Reagent; 2.5 uL; Firefly Luc reagent; Dual-Glo Luciferase Reporter Assay System (Promega)
6; Time; 10 min; room temperature incubation
7; Detection; Luminescence; FLuc
NOTES (numbers refer to sequence above)
1; High-throughput screening, measuring luminescence from a Hek293 luciferase reporter, was performed in 1,536 well white-walled tissue-culture treated plates. 2,500 cells were plated in 4 µL of Opti-MEM per well using a Multidrop Combi Reagent Dispenser (ThermoFisher).
2; Assay plates were cultured for 24 hours.
3; Control inhibitor (PTC124; final concentration of 50 uM) and compound library (at final concentrations of 460 nM - 57.5 uM) were added to the assay plate using the Kalypsis Pintool Robotic System equipped with 1536 pinheads.
4; Cells were then incubated for 24 hours at 37 degrees C prior to luminescence measurements.
5; In all cases, luminescence was measured using the Dual-Glo Luciferase Reporter Assay System (Promega) following the manufacturer's instructions.
6; Room temperature incubation.
7; Luminescence signal was obtained using the PerkinElmer ViewLux plate reader. Results were normalized to vehicle control (0% activity) and zero RLU (-100% activity).

Activity change, negative = inhibition, inactive:
COc1ccc(Cn2c(=O)[nH]c3cc(C(=O)N4CCN(c5cccc(OC)c5)CC4)ccc3c2=O)cc1 0.309%
Cn1cc(C(=O)NCc2ccc(Cl)cc2)c(=O)c2cc(S(=O)(=O)N3CCCCCC3)ccc21 -14.6%
COc1cccc(C(=O)Nc2cc3cc(OC)ccc3oc2=O)c1 0%
Cc1cc(C)c2c(n1)SCCN2C(=O)Nc1ccc(C(=O)Nc2cc(Cl)ccc2C)cc1 -12.9%
Cc1cc(C(=O)NCCc2ccc(Cl)cc2)c2c(C)nn(-c3cccc(F)c3)c2n1 -3.44%
COC(=O)c1cc2sc(Cl)cc2n1Cc1nc(-c2ccc(OC)cc2)oc1C -6.96%
COc1ccc(N(CC(=O)NCCc2cccc(C)c2)S(=O)(=O)c2c(C)noc2C)cc1 -29.4%
O=C(Nc1nnc(S(=O)(=O)N2CCN(c3ccc(F)cc3)CC2)s1)c1ccc(Cl)cc1 -7.12%
Cc1ccc(Cl)cc1NC(=O)COCc1cc(-c2ccco2)on1 9.39%
CCCCSCCCNC(=O)CN1C(=O)COc2ccc(S(=O)(=O)N3CCC(C)CC3)cc21 -19.9%
Cc1ccc(NC(=O)Cn2c(CCC(=O)O)ccc2-c2ccc(Cl)cc2)cc1 -12%
COC(=O)c1ccc(NC(=O)Cn2nc(C(=O)Nc3ccc(C)cc3)ccc2=O)cc1 -9.86%
CCN(CC)S(=O)(=O)c1ccc2c(c1)N(CC(=O)N(C)Cc1ccccc1)C(=O)CO2 -12.8%
Cc1ccc(Cn2cc(CCC(=O)NCc3ccccc3F)c3ccccc32)cc1 -19.4%
O=C(CNC(=O)c1ccc(Cl)cc1)OCc1cc(=O)n2ccsc2n1 -8.74%
COc1ccc(-c2[nH]c3c(c2-c2c(-n4cccc4)n(C)c(=O)n(C)c2=O)c(=O)n(C)c(=O)n3C)cc1 -2.83%
COc1cccc(CNC(=O)C(NS(=O)(=O)c2ccc3c(c2)oc(=O)n3C)C(C)C)c1 (stereo not drawn) -9.55%
Cc1c(C(=O)OCC2CCCCC2)[nH]c2c1C(=O)CC(c1ccc(Cl)cc1)C2 (stereo not drawn) 3.05%
Cc1cccc(NC(=O)CSc2nc(C3CCCC3)nc3c2c(=O)n(C)c(=O)n3C)c1C 10.1%
Cc1nnsc1C(=O)Oc1ccc(C(C)C)cc1 -6.88%
COc1ccc2c(c1)-c1nc(NC(=O)c3ccccc3F)sc1CC2 -0.851%
CCN(CC)C(=O)c1sc2c(c1C)c(=O)n(-c1ccc(C)c(C)c1)c(=O)n2Cc1cc(=O)n2c(C)cccc2n1 -1.11%
CCn1c(=O)cc(OCC(=O)NCc2ccccc2Cl)c2ccccc21 0.249%
COc1ccc(CNC(=O)CSc2ncc3c(n2)-c2cc(Cl)ccc2N(Cc2ccccc2)S3(=O)=O)cc1OC -27.5%
O=C(c1ccccc1)n1nc(-c2ccco2)nc1NCc1cccs1 3.62%
COc1cc2c(cc1OC)CN(CCc1ccc(NC(=O)c3cc(OC)c(OC)cc3NC(=O)c3cnc4ccccc4c3)cc1)CC2 -18.9%
O=c1cc(-c2ccccc2)nc2cc(-c3ccc(F)cc3)[nH]n12 6.05%
Cc1ccc(S(=O)(=O)N2CCc3cc(C(=O)Nc4ccc(C)c(C)c4)ccc32)cc1 -21.5%
CCC(=O)OCc1cnc(C)c2oc(=O)c(C(=O)Nc3ccccc3C(F)(F)F)cc12 -8.8%
COc1cc2ccccc2cc1C(=O)Nc1cc(-c2nc3ccccc3o2)ccc1C 16.5%
Cc1cccc(N(C)C(=O)CN(C)S(=O)(=O)c2ccc3[nH]c4c(c3c2)CCCC4)c1 -6.85%
CCCCNc1nc(Oc2ccc(OCCC)nn2)nc(N(C)C)n1 -27.8%
COc1ccc(CC(=O)Nc2c(C(=O)Nc3ccc(F)cc3)oc3ccccc23)cc1OC 22.1%
COc1ccc(OC)c(CCNC(=O)CN2C(=O)COc3ccc(S(=O)(=O)N4CCC(C)CC4)cc32)c1 -24.5%
O=C(CCSCc1ccccc1F)N1CCN(c2ccc(Cl)cc2)CC1 -29.4%
CCCN1CCN(CCNC(=O)Nc2cc(C)ccc2OC)CC1 -15.2%
CCOC(=O)c1ccc(NC2=CC(c3ccc(O)c(OCC)c3)N(c3ccc(C(=O)OCC)cc3)C2=O)cc1 (stereo not drawn) 1.78%
COc1cc2c(C(=O)Nc3ccc(C)cc3Br)cn(C)c(=O)c2cc1OC -8.91%
CCOc1ccccc1NC(=O)c1sc2nc(-c3ccc(OC)cc3)ccc2c1N 15.7%
CCC1CCCCN1CCCNC(=O)c1c(O)nc2c(C)cccn2c1=O (stereo not drawn) -5.03%
N#Cc1ccccc1Cn1c(=O)n(CCCCC(=O)NCc2ccc3c(c2)OCO3)c(=O)c2ccccc21 -12.7%
Cc1ccccc1C(=O)Nc1nnc(S(=O)(=O)N(C)Cc2ccc(Cl)cc2)s1 -8.65%
O=C(Cc1ccc(F)cc1)N1CCC(c2nc3c(nnn3Cc3ccc(F)cc3)c(=O)[nH]2)CC1 -16%
COc1ccc(OCC(=O)Nc2ccc(O)c(-c3nc4ccccc4s3)c2)cc1 -25.3% [at 11.5 µM]
CCCn1c(=O)c2sccc2n2c(CCCC(=O)Nc3ccccc3OCC)nnc12 -11%
COc1ccc(CC(=O)N2CC(=O)Nc3ccc(Br)cc3C2c2ccc(F)cc2)cc1 (stereo not drawn) -28.9%
CCS(=O)(=O)N1CC(=O)N(c2cc(C)ccc2C)C(C)(C(=O)NC2CCCCC2)C1 (stereo not drawn) 6.79%
Cc1ccc(Cl)cc1NC(=O)N1CCC2(CC1)Oc1ccccc1C(=O)N2Cc1ccccc1F -29.2%
COc1ccc(-n2nnc(-c3nsc(NC(=O)c4cccs4)n3)c2C)cc1OC 29.6%
Cc1cccc(NC(=O)C(=O)NCCc2sc(-c3ccccc3)nc2C)c1C -4.86%
Cc1c(Cl)cccc1NC(=O)C(CCS(C)(=O)=O)N1Cc2ccccc2C1=O (stereo not drawn) -9.89%
COc1ccc(-c2cn3c(n2)sc2cc(C(=O)NC4CCCCCC4)ccc23)cc1 -1.39%
CC(=O)c1c(C)oc2ccc(N(C(=O)Oc3ccccc3)S(=O)(=O)c3ccccc3)cc12 -31.4%
CC(CNC(=O)c1cc(-c2ccccc2)n[nH]1)c1ccccc1 (stereo not drawn) 27.2%
CC1CCCN(c2c(S(=O)(=O)c3ccccc3)cnc3ccc(Cl)cc23)C1 (stereo not drawn) -14.3%
Nc1cc(=O)nc(SCC(=O)Nc2ccc(F)cc2)n1-c1cccc(Cl)c1 -18.5% [at 11.5 µM]
Cc1cccc(N2CCN(C(=O)c3c(C)oc4ncnc(N5CCOCC5)c34)CC2)c1C -3.71%
COc1ccc(C)cc1NC(=O)c1cc(S(=O)(=O)N2CCC(C)CC2)cn1C -15%
COc1ccc(CCN2C(=O)N(c3ccc(C)cc3)C(=O)C2CC(=O)Nc2ccc(F)cc2)cc1 (stereo not drawn) -26.5%
Cc1nn(C(=O)COc2ccccc2Br)c(C)c1Sc1ccccc1 -32.8%
CS(=O)(=O)c1ccc(C2=C(c3ccccc3)C(=O)OC2)cc1 0.0629%
COc1cccc(NC(=O)c2sc3nc(C)c(C(=O)Nc4ccc(Cl)cc4)c(-c4ccc(Br)cc4)c3c2N)c1 -20.5%
O=C(CSc1n[nH]c(-c2ccccc2)n1)N1CCN(c2ccccc2F)CC1 -8.63%
Cc1cccc(NC(=O)c2sc3nc(-c4ccccc4)cn3c2C)c1C 6.91%
COc1ccc2c(CNCc3ccccc3OC)c(C(=O)O)n(Cc3ccc(F)cc3Cl)c2c1 7.54%
CCc1ccc(NC(=O)C2CCC(CNS(=O)(=O)c3ccc4c(c3)C(C)(C)C(=O)N4C)CC2)cc1 (stereo not drawn) -13%
COc1ccc2c(Sc3ccc(C)cc3)c(C(=O)NCCc3ccccc3)[nH]c2c1 13.4%
OCc1cnc(SCc2ccc(F)cc2)n1Cc1ccc(F)cc1 -36.2%
CCOC(=O)C1=C(C)NC(=O)NC1c1cn(-c2ccccc2)nc1-c1ccc(OC(C)C)cc1 (stereo not drawn) -4.06%
Cc1nn(C)c2c1c(C(F)(F)F)cc(=O)n2C(C)C(=O)NCCc1ccccc1 (stereo not drawn) -10.8%
O=C(c1ccc(F)cc1)N1CCC(c2nc(-c3ccc(S(=O)(=O)N4CCCC4)cc3)no2)CC1 -9.2%
COc1ccccc1N(CC(=O)Nc1ccc2c(c1)OCO2)S(=O)(=O)c1ccc(C)cc1 -20.6%
O=C(CN1c2ccccc2S(=O)(=O)c2ccccc21)Nc1ccccc1Cl 0%
O=C(Cn1cnc2onc(-c3ccc(F)cc3)c2c1=O)Nc1ccc(F)c(Cl)c1 -19%
CCc1nn(CC(=O)NCCCN2CCN(CC)CC2)c(=O)c2cc3occc3n12 -10.5%
CCCOc1ccc(-c2nonc2NC(=O)c2oc3ccc(Cl)cc3c2C)cc1OCCC -11.9%
O=C(c1ccc2c(c1)N(Cc1c(F)cccc1Cl)C(=O)c1ccccc1S2)N1CCOCC1 -21.3%
Cc1ccc2nc(COc3ccccc3NC(=O)c3ccccc3F)cc(=O)n2c1 -2.54%
CCc1cccc(NC(=O)C2Cc3ccccc3N2C(=O)c2ccccc2)c1 (stereo not drawn) 0%
NC(=O)Cn1c(=O)n(CCCCCC(=O)NCc2ccc(F)cc2)c(=O)c2sccc21 3.02%
COc1ccc(OC)c(NC(=O)CSc2ncc3c(n2)-c2ccccc2N(C)S3(=O)=O)c1 -13.9%
O=C(C1COc2ccccc2O1)N(Cc1cccnc1)c1nc2c(Cl)cccc2s1 (stereo not drawn) -28.5%
CCCNC(=O)c1ccc(-c2nc(CS(=O)(=O)c3ccc(C)cc3)c(C)o2)cc1 -17.4%
COc1cccc(C(=O)Nc2cccc(-c3cn4ccsc4n3)c2)c1OC 9.59%
Cc1ccccc1-c1noc(-c2cccnc2N2CCN(c3ccccc3)CC2)n1 -11.2%
CCOC(=O)c1ccc(NC(=O)CCn2c(=O)c3cccn3c3cccnc32)cc1 -6.93%
O=C(Nc1ccc(F)cc1F)c1cc(-c2ccc(Cl)cc2)on1 2.77%
CCN(CC)C(=O)Cn1c(=O)n(-c2ccc(C)c(C)c2)c(=O)c2c3c(sc21)CCCCC3 -3.91%
COc1ccc(NC(=O)c2ccc3c(SCC(=O)O)c4c(nc3c2)CCCC4)c(OC)c1 -6.4%
O=C(CN1C(=O)COc2ccc(S(=O)(=O)N3CCOCC3)cc21)N1CCN(c2cccc(Cl)c2)CC1 -9.58%
Cc1cccc(-c2nc3c4ccccc4n(Cc4cccc(Cl)c4)c(=O)n3n2)c1 -14.1%
C#CCSc1nc(-c2ccccc2)cc(-c2ccccc2)c1C#N -6.73%
Cc1ccc(-n2c3c(cc(-c4nc(-c5ccc(Cl)cc5)cs4)c2=O)C(=O)CC(C)(C)C3)cc1C -9.94%
